The target of assay [1] is T1, GST-tagged hRNase 1 (human) (UniProt P07998).
T1 sequence: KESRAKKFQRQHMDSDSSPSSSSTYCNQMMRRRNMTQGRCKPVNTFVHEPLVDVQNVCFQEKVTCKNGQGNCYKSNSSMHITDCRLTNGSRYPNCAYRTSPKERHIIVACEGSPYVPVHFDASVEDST
Kind of assay: pull-down; GST-tagged hRNase 1 on glutathione magnetic beads incubated with lysate (1 mg) of transfected 293T cells at 4 °C for 6 h; WB; only the target purified.

Protein sequences, listed by entry. Tags and fused reporters are not part of them. Lines headed by an entry give the natural chain unless they say otherwise; changes in a name come on top. Residues count along the entry.
UniProt P54764: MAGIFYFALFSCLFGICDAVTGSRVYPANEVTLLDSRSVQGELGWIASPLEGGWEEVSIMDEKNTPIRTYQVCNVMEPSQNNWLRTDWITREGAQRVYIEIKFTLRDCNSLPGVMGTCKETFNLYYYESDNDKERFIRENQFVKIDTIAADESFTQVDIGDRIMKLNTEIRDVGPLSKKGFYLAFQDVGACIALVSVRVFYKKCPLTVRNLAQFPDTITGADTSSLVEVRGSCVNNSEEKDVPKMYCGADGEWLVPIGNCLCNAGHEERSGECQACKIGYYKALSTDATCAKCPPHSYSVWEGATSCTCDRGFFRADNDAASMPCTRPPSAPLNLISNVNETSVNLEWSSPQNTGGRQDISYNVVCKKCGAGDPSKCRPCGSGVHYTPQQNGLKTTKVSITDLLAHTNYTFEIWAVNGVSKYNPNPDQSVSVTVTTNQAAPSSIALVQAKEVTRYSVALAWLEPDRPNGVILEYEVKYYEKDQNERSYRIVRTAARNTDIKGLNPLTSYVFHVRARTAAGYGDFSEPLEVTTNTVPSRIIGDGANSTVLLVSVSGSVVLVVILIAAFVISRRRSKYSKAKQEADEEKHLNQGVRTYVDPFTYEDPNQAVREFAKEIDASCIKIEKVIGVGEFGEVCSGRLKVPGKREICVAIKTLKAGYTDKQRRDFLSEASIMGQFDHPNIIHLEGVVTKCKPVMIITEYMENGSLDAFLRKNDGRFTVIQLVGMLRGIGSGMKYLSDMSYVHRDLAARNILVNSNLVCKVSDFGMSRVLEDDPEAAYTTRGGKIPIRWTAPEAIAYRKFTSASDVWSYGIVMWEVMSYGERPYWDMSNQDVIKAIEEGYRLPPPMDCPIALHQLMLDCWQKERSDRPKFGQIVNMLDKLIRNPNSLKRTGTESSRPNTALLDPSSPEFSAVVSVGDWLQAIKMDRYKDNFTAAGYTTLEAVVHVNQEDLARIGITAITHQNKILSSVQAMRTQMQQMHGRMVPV
EphA4 expressed in KPL4 cells with hRNase 1 knockout (KPL4-A4-KO-R1): residues 20-986 of P54764
purified N-terminal EphA4 chimera (N-EphA4-Fc): residues 20-547 of P54764
UniProt P03950, residues 25-147: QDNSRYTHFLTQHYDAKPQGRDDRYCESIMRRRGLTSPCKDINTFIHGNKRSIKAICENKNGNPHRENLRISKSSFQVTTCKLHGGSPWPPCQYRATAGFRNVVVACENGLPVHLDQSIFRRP

Assay [2] has as its target endogenous EphA4 (human (endogenous in MCF7, BT-549, KPL4)) (UniProt P54764). Kind of assay: proximity ligation; Duolink in situ PLA; BT-549 and KPL4 cells treated for 30 min with CM from 293T stable transfectants; anti-EphA4 and anti-Flag antibodies.
For assay [3], the target named is purified N-terminal EphA4 chimera (N-EphA4-Fc) (UniProt P54764). Kind of assay: pull-down; in vitro binding assay; N-EphA4-Fc incubated with or without hRNase 1 purified from E. coli; protein G beads used for pull-down; both purified.
Assay [4] has as its target EphA4 expressed in KPL4 cells with hRNase 1 knockout (KPL4-A4-KO-R1) (human) (UniProt P54764). Kind of assay: proximity ligation; Duolink in situ PLA; KPL4-A4-KO-R1 cells treated with GST vector or GST-hRNase 1 proteins (WT, ΔN, ΔC) for 30 min; percentage of positive cells from a pool of 50 cells; only the binder purified.
The target in assay [5] is purified N-terminal EphA4 chimera (N-EphA4-Fc) (UniProt P54764). Kind of assay: pull-down; in vitro binding assay; recombinant hRNase 1 (HEK293) heat-denatured and incubated overnight at 37 °C without or with PNGase F, then incubated with N-EphA4-Fc or human IgG; both purified.

These are yes or no findings as the source states them, for the method shown. For part of these data: Binding seen in cells or lysates may run through a third protein. Some results given as binding are weak or reduced against the parent protein; the word gives no strength. For part of these data: Tags and fused reporters may be left off the sequences shown.

Consider nine molecules from paper PMC8119676, “Human ribonuclease 1 serves as a secretory ligand of ephrin A4 receptor and induces breast tumor initiation” (Nature Communications, 2021).

As for “Myc-tagged EphA4-ECD (amino acids 1–547 of EphA4) (from UniProt P54764 20-547) (domain or fragment)”, the binding result in assay [1] was “binds”.

As to “Myc-tagged EphA4-ICD (amino acids 570–986 of EphA4) (from UniProt P54764 570-986) (domain or fragment)”, the binding result in assay [1] was “no binding”.

Consider “Flag-tagged hRNase 5 in conditioned medium of 293T-pCDH-hRNase 5 stable transfectants (from UniProt P03950 25-147) (enzyme)”, for which the binding entry in assay [2] is given as “no binding”.

For the molecule “Myc-tagged EphA4 (from UniProt P54764 20-986) (receptor)”, the binding entry in assay [1] is reported as “binds”.

B1: Flag-tagged hRNase 1 in conditioned medium of 293T-pCDH-R1 stable transfectants (enzyme, UniProt P07998 29-156)
chain: T1 sequence
In the case of B1, the binding entry in assay [2] is listed as “binds”.

B2: recombinant hRNase 1 protein purified from Escherichia coli (hRNase 1-Myc-His) (enzyme, UniProt P07998 29-156)
chain: T1 sequence
Consider B2, for which the binding entry in assay [3] is given as “binds”.

B3: GST-tagged hRNase 1 (enzyme, UniProt P07998 29-156)
chain: T1 sequence
Turning to B3, in assay [4], the binding entry is reported as “binds”.

B4: recombinant hRNase 1 pretreated with PNGase F (non-glycosylated hRNase 1) (enzyme, UniProt P07998 29-156)
chain: T1 sequence
modifications: N-linked glycans removed with PNGase F
As for B4, in assay [5], the binding entry is listed as “binds”.

B5: GST-hRNase 1 deletion mutant of N-terminus (ΔN; amino acids 1–21 deletion) (domain or fragment, UniProt P07998 50-156)
chain: SSTYCNQMMRRRNMTQGRCKPVNTFVHEPLVDVQNVCFQEKVTCKNGQGNCYKSNSSMHITDCRLTNGSRYPNCAYRTSPKERHIIVACEGSPYVPVHFDASVEDST
As for B5, the binding result in assay [4] is on record as “binds”.
